Target: T1, IL-17R extracellular domain (ECD) (residues 1-288), Examples 33/34 (human, UniProt Q96F46 33-320)
T1 construct: range 1-288; Migrated as a monomer; also called IL-17R ECD
Test: SPR (BIAcore 1000), IL-17 immobilized, IL-17R ECD in solution, 1:1 model

B1: IL-17, recombinant, Examples 33/34 (ligand)
chain: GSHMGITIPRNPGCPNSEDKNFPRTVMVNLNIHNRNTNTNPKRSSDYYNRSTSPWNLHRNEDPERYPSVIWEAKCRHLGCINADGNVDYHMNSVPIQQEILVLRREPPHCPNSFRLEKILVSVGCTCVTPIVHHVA
  Kd: 72 nM
  koff: 0.00067 s⁻¹
  kon: 9300 M⁻¹ s⁻¹
